For test [1], the target named is T1, Serine/arginine-rich splicing factor 3 (SRSF3), endogenous (human (endogenous in HEK293T and SW480)) (UniProt P84103).
T1 sequence: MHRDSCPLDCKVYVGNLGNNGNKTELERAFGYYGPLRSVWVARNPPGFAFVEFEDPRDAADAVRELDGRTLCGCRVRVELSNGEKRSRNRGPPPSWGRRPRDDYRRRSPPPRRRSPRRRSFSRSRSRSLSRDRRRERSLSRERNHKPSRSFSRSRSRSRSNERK
The experiment in a line: co-IP; SW480 cells serum-starved for 72 h; cell extracts immunoprecipitated with anti-SRSF3 antibody.

Chains of the proteins cited; added tags and fusions are not shown.
UniProt P60842: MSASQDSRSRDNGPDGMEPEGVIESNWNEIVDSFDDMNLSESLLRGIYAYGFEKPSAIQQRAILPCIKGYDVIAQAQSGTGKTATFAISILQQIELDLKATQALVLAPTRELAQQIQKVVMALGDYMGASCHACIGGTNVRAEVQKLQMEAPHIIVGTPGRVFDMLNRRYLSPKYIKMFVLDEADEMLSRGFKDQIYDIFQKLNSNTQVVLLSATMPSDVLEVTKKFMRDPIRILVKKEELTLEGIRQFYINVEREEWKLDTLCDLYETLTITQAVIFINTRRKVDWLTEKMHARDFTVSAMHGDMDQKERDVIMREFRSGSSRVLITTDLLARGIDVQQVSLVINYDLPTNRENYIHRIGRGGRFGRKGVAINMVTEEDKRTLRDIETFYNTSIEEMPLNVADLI

For test [2], the target named is T2, FLAG-tagged SRSF3 RRM domain (1-83) (human) (UniProt P84103).
T2 sequence: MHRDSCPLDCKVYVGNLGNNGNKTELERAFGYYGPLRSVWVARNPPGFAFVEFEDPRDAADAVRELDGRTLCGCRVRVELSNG
The experiment in a line: co-IP; lysates of HEK293T cells transfected with Flag-tagged SRSF3 FL, RRM or RS; immunoprecipitated with anti-Flag antibody, western blot with anti-eIF4A. For orientation: Immunoblotting shows a protein as a band on a membrane.

The target of test [3] is T3, FLAG-tagged SRSF3 RS domain (84-164) (human) (UniProt P84103).
T3 sequence: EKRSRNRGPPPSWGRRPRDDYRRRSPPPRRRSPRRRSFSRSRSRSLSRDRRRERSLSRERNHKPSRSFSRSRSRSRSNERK
The test is described as above.

The target in test [4] is T4, FLAG-tagged SRSF3 full-length (human) (UniProt P84103).
T4 sequence: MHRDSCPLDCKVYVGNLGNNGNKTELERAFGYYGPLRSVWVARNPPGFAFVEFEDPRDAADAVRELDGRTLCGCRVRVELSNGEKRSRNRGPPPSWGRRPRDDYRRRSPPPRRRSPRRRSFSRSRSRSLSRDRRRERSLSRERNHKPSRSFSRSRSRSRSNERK
The test is described as above.

For test [5], the target named is T5, GST-SRSF3 RRM domain (1-83) (human) (UniProt P84103).
T5 sequence: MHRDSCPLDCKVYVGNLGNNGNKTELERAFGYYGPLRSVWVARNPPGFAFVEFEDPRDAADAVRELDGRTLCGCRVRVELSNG
The experiment in a line: pull-down; GST-SRSF3 proteins immobilised on Glutathione Sepharose 4B beads, incubated with Hisx6-eIF4A1 overnight at 4 °C; washed five times with 20 mM HEPES pH 7.6, 150 mM NaCl, 5 mM MgCl2, 1% Triton X-100, 5% glycerol; western blot; both purified.

Test [6] deals with T6, GST-SRSF3 RS domain (84-164) (human) (UniProt P84103).
T6 sequence: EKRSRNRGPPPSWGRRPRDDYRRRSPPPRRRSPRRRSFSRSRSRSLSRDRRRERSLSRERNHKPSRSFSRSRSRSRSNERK
Described as above.

Test [7] addresses T7, GST-SRSF3 full-length (human) (UniProt P84103).
T7 sequence: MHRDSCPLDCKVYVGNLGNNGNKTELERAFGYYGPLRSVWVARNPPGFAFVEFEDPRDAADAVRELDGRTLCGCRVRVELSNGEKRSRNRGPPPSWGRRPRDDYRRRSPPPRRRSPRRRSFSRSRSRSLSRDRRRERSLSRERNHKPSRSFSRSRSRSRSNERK
The test is described as above.

For test [8], the target named is translational initiation factor eIF4A1, endogenous (human (endogenous in HEK293T and SW480)) (UniProt P60842). The experiment in a line: co-IP; cytoplasmic extracts of HEK293T cells (anti-eIF4A1 antibody) and SW480 cells (anti-SRSF3 or anti-eIF4A1 antibody), protein G-Sepharose beads, western blot; endogenous proteins.

This note sets out measurements from PMC9640673.

No constants are given. Whether binding was seen depends on the method and setting. For some assays here: Binding seen in cells or lysates may run through a third protein. Some binding calls cover weakened binding; strength is not graded here. For some assays here: Sequences can lack the tags named with a protein.

Consider “translational initiation factor eIF4A1, endogenous (from UniProt P60842 1-406)”, for which the binding result is listed as “no binding (condition: serum starvation for 72 h)” in test [1], “no binding” in test [2], “binds” in test [3] and “binds” in test [4].
Consider “recombinant Hisx6-eIF4A1 (from UniProt P60842 1-406)”, for which the results for the binding result in test [5], in test [6] and in test [7] were “no binding”, “binds” and “binds”, respectively.

B1: Serine/arginine-rich splicing factor 3 (SRSF3), endogenous (protein, UniProt P84103 1-164)
chain: MHRDSCPLDCKVYVGNLGNNGNKTELERAFGYYGPLRSVWVARNPPGFAFVEFEDPRDAADAVRELDGRTLCGCRVRVELSNGEKRSRNRGPPPSWGRRPRDDYRRRSPPPRRRSPRRRSFSRSRSRSLSRDRRRERSLSRERNHKPSRSFSRSRSRSRSNERK
Regarding B1, the binding result in test [8] is on record as “binds”.
